Experimental data as given in PubChem BioAssay AID493208 (National Center for Advancing Translational Sciences (NCATS), 2011).
Among all 44,000 compounds or so, about 340 (0.77%) were called active. About 5% were inconclusive and are not listed. Calls follow the shape of the dose curve; as a rule, active = well fitted inhibition curve with a large enough effect; inconclusive = small, poorly fitted or top-dose-only effect; inactive = flat fitted curve, though single readings scatter. This is one part of the list.

Experiment: Acumen qHTS Assay for Inhibitors of the mTORC1 Signaling Pathway in MEF (Tsc2-/-, p53-/-) Cells: Sytravon;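 also: plate controls were DMSO for no effect and rapamycin for full effect; nearly all actives have a fitted effect of over 50% in size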
Conditions: phospho-rpS6 immunofluorescence/PI, 24 h; series mostly up to 38.3 µM; activity change, negative = inhibition: at the top concentration
Outline: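 Immunofluorescence of rpS6 phosphorylation in Tsc2-/-, p53-/- MEFs after 24 h compound exposure, normalized to propidium iodide signal. Activity is expressed as % positive cells, thresholded with 7.5 nM rapamycin.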

Activity change, negative = inhibition, inactive:
COc1ccc(CCNC(=O)C2(c3cccs3)CCOCC2)cc1OC -0.447%
CCOc1ccc(OC(=O)c2cn(-c3ccc(C)cc3)c(=O)c3ccccc23)cc1 -3.43%
COc1ccc(-c2nc3c4ccccc4n(CC(=O)Nc4cc(F)ccc4F)c(=O)n3n2)cc1 -0.427%
Cc1coc2cc3oc(=O)c(CCC(=O)NCc4ccc(Cl)cc4)c(C)c3cc12 1.7%
COc1ccc(-c2cc(C(F)(F)F)n3nc(C(=O)Nc4cc(Cl)cc(Cl)c4)cc3n2)cc1 1.12%
COc1cc(-c2ccno2)ccc1S(=O)(=O)N1CCN(c2ccc(C(C)=O)cc2)CC1 -10.5%
CCCCC(=O)Nc1ccccc1C(=O)OCc1cc(=O)n2nc(C3CCCCC3)sc2n1 3.82%
CCOC(=O)C1CCN(C(=O)Cn2nc(C)n3c(cc4cc(F)ccc43)c2=O)CC1 -7.86%
COc1ccc(N2CCN(S(=O)(=O)CCNC(=O)Cc3ccc(Cl)cc3)CC2)cc1 -7.55%
CCn1cc(S(=O)(=O)c2cc(C)cc(C)c2)c(=O)c2cc(F)c(N3CCCC3)cc21 2.87%
CCCCN1C(=O)CN(C2CCCCCC2)C(=O)C1c1ccc(OCCC)c(OC)c1 (stereo unspecified) -1.71%
CCOc1ccc(CCNC(=O)c2nnc(Cc3cc(OC)c(OC)c(OC)c3)o2)cc1OCC 7.52%
Cc1ccccc1Cn1c(=O)n(Cc2ccc(Cl)cc2)c(=O)c2cccnc21 1.4%
COc1cc(Cl)c(C)cc1NC(=O)c1sc2nc3n(c(=O)c2c1C)CCCCC3 -0.369%
COc1ccc(OC)c(NC(=O)CSC2=Nc3ccccc3C3=NC(CC(=O)NCc4ccc5c(c4)OCO5)C(=O)N23)c1 (stereo unspecified) -0.185%
CCOC(=O)c1c(NC(=O)c2nc(SC(C)C)ncc2Cl)sc2c1CCCC2 0.999%
O=c1cc(N2CCN(c3ccc(F)cc3)CC2)[nH]c(=O)n1-c1ccc(Br)cc1 -1.69%
Cn1c(SCc2ccc(C(F)(F)F)cc2)nc2c([nH]c3ccccc32)c1=O 1.57%
COc1cc(C(=O)NCC(c2cccnc2)N2CCc3ccccc32)cc(OC)c1OC (stereo unspecified) -4.42%
CN(C)c1ccc(C(CNS(=O)(=O)c2ccccc2)N2CCc3ccccc32)cc1 (stereo unspecified) 0%
COc1cc(NC(=O)N2CCC(CN3CCCC3)CC2)cc(OC)c1OC 0.575%
CC(=O)c1c(C)oc2c(Cl)cc(NS(=O)(=O)c3ccc(Cl)cc3)cc12 -2.48%
CCN(CC)C(=O)Cn1c(=O)n(Cc2ccc(C(=O)NCc3ccccc3Cl)cc2)c(=O)c2ccccc21 -0.611%
COc1cc(C2C(=O)N(C3CCCCC3)CC(=O)N2Cc2ccc(C)cc2)ccc1OC(C)C (stereo unspecified) 2.46%
CCOC(=O)c1c(-c2ccc(Br)cc2)csc1NC(=O)c1ccccc1F -0.271%
Cc1ccc2c(C)c(C(=O)N(Cc3ccc(Cl)cc3)C3CCS(=O)(=O)C3)oc2c1 (stereo unspecified) -2.34%
O=C1[C@@H]2CSC(c3ccc(C(F)(F)F)cc3)N2C(=O)N1c1ccccc1 (stereo partly specified) 1.5%
CCCNc1c(NC(=O)c2ccc(OCCC)cc2)c(=O)oc2ccccc12 -17.7%
O=C1CN(C(=O)c2ccccc2C(F)(F)F)C(c2ccccc2)c2cc(F)ccc2N1 (stereo unspecified) 0.0315%
COc1cc2c(cc1OC)C(COc1ccc3c(C)cc(=O)oc3c1)N(C(=O)c1ccc(Cl)cc1)CC2 (stereo unspecified) -19.9%
CCC(C)(C)C1CCc2c(sc(NC(=O)C3c4ccccc4Oc4ccccc43)c2C(N)=O)C1 (stereo unspecified) -0.925%
CCCCC(CC)CNC(=O)C1CCN(S(=O)(=O)c2cccc3nsnc23)CC1 (stereo unspecified) 2.77%
Cc1ccc(C)c(N2CCN(CCCNC(=O)Cn3ncc4c5ccccc5n(C)c4c3=O)CC2)c1 -6.45%
COc1ccccc1N1CCN(C(=O)c2cc3c(=O)n(Cc4ccco4)ccc3nc2C)CC1 -8.65%
N#Cc1nc(-c2ccc(COc3ccc(Cl)cc3)o2)oc1N1CCN(c2ccccc2)CC1 -2.63%
Cc1ccc(NS(=O)(=O)c2c(C(=O)N3CCC(C)CC3)c(C)n(C)c2C)cc1Cl 10.8%
CCOc1ccc(NC(=O)CCn2cnc3onc(-c4ccc(F)cc4)c3c2=O)cc1 -0.703%
Cc1ccc(CN2CCSc3ccc(C(=O)N4CCN(c5cc(C)ccc5C)CC4)cc32)cc1 -13.4%
O=C(CSc1nc2c(oc3ccccc32)c(=O)n1-c1ccccc1F)Nc1ccccc1 -8.11%
CCOC(=O)c1c(S(=O)(=O)N2CCCC(C(=O)N3CCN(c4cccc(C)c4C)CC3)C2)c(C)n(C)c1C (stereo unspecified) -1.85%
Cc1ccc(Nc2c3c(nc4nncn24)CCC3)cc1C -2.08%
CC(C)CN1CCc2nc(N3CCN(C)CC3)ncc2C1 7.16%
O=C(CN1C(=O)COc2ccc(S(=O)(=O)N3CCOCC3)cc21)NCc1ccc(F)cc1 5.16%
CCOc1cc(S(=O)(=O)n2ccnc2C(C)C)ccc1Cl -3.43%
CCn1cc(C(=O)N2CCN(c3ccccc3F)CC2)c(=O)c2cc(S(=O)(=O)N(C)C3CCCCC3)ccc21 -2.01%
COc1ccc(-c2cc3ccc(O)c(CN4CCOCC4)c3oc2=O)cc1 -0.588%
CC(=O)N1CCc2cc(Br)cc(S(=O)(=O)N3CCC(C(=O)N(C)c4cc(C)ccc4C)CC3)c21 5.03%
Cc1cccc(NC(=O)CSc2nc(-c3ccco3)nc3cc(=O)[nH]n23)c1 5.73%
COc1cc(NC(=O)c2ccccc2)ccc1NC(=O)c1cc2ccccc2o1 9.23%
COC(=O)c1c(SC)nc2ccccc2c1OCc1ccccc1C 9.67%
COc1ccc(-c2ccc3c(N)c(C(=O)NCc4ccc(Cl)cc4)sc3n2)cc1 -18.5%
O=C(CCn1c(=O)c2ccccc2n(Cc2ccc(F)cc2Cl)c1=O)NCc1ccc2c(c1)OCO2 -4.06%
CCc1ccc(NC(=O)C2CCN(S(=O)(=O)c3ccc4[nH]c5c(c4c3)CCCCC5)CC2)cc1 -6.95%
Cc1cccc(C)c1NC(=O)Cn1c(=O)n(CC2CCC(C(=O)NCCc3ccccc3)CC2)c(=O)c2ccccc21 (stereo unspecified) -3.67%
CCOC(=O)c1noc2ncnc(Nc3ccc(F)cc3F)c12 -2.93%
CCOC(=O)C1CCN(C(=O)C2CCN(C3=NS(=O)(=O)C(c4ccc(C)cc4)=C3CC)CC2)CC1 -5.06%
CCOC(=O)CSc1nc2c(sc3ccccc32)c(=O)n1CCc1ccccc1 3.65%
Cc1ccc(CNC(=O)C2CCN(c3nc4ccccc4n(C)c3=O)CC2)cc1 -4.45%
O=[N+]([O-])c1cc(-c2nc(-c3ccccc3)no2)ccc1N1CCN(c2ccccc2)CC1 -1.18%
CC(=O)c1ccc(S(=O)(=O)Nc2cccc(-c3ccc(N4CCCCC4)nn3)c2)cc1 3.03%
Cn1cc(S(=O)(=O)N2CCCCCC2)cc1C(=O)N1CCN(c2cccc(Cl)c2)CC1 4.36%
Cc1ccc(NC(=O)Cn2nnc(-c3nc(-c4ccncc4)no3)c2N)cc1 -2.09%
Cc1ccc(C(=O)O)cc1Nc1nc2ccccc2n2nnnc12 -8.49%
CCCOc1ccc(CNC(=O)C(CC)n2nc(C)c3sc4ccccc4c3c2=O)cc1 (stereo unspecified) -3.99%
CCOc1ccc2nc(C)cc(Nc3ccccc3OCC)c2c1 21%
COCCNC(=O)c1c(C)oc2nc(C)nc(N3CCOCC3)c12 -2.61%
CCOC(=O)c1c(NC(=O)c2ccccc2Cl)sc2c1CCCC2 -18.7%
Cc1ccc(-c2nnc(SCc3ccccc3C#N)o2)cc1 -5.26%
COc1cccc(-c2nc(CS(=O)(=O)CC(=O)NCc3ccc(C)cc3)c(C)o2)c1 -0.593%
CCOc1cc(-c2nc3c(c(CC)nn3-c3ccccc3)c3cc(OC)c(OC)cc23)ccc1O 11.5%
Cc1cccc(OCC(=O)OCc2cc(=O)n3nc(C4CCCCC4)sc3n2)c1 -9.64%
CCOC(=O)C(CC)n1nc(C)n2c(cc3occc32)c1=O (stereo unspecified) -2.19%
COc1ccc(C(=O)COC(=O)c2cccc(NC(=O)c3ccc(OC)c(OC)c3)c2)cc1 -18.1%
COc1ccc(C(=O)c2cn(Cc3ccc(F)cc3)c3ccc(C)cc3c2=O)cc1 -8.93%
Cc1csc2nc(-c3cccc(NC(=O)c4ccccc4Cl)c3)cn12 -32.9%
Cc1ccc(-c2nc3ccccn3c2Nc2ccc3c(c2)OCO3)cc1 -14%
O=C(NC1CCCCCC1)C1CCN(C(=O)N2CCOc3ccccc32)CC1 -2.23%
Cc1ccc(S(=O)(=O)NCC(c2ccc(N(C)C)cc2)N2CCOCC2)cc1 (stereo unspecified) 7.88%
COc1cc(OC)c(N(C)C(=O)Cn2ncc3c([nH]c4ccccc43)c2=O)cc1Cl 0.677%
O=c1c2cc3c(cc2nc2sc(Nc4ccc(F)c(Cl)c4)nn12)OCO3 -1.51%
Cc1nc(C)c(-c2ccc(SCC(=O)Nc3ccc(F)c(F)c3)nn2)s1 -7.79%
COc1cc(/C=C(\C#N)c2nc3ccccc3n2C)cc(OC)c1OC 3.1%
Cc1ccc(NC(=O)c2cc(S(=O)(=O)N3CCCC(C)C3)cn2C)c(Br)c1 (stereo unspecified) -4.85%
CCOc1ccc(CNC(=O)c2cc3ccccn3n2)cc1OC 0%
Cn1c(=O)c2c(-c3cccc(Br)c3)n(CCO)cc2n(C)c1=O 1.2%
CCN1CCN(c2oc(/C=C/c3ccccc3OC)nc2C#N)CC1 -8.22%
CCOC(=O)c1c(-c2ccc(C)cc2)csc1NC(=O)c1nc(SCC)ncc1Cl 5.71%
COc1cccc(NS(=O)(=O)c2ccc3[nH]cc(C(=O)N4CCCCCC4)c(=O)c3c2)c1 -14.7%
CC1CCN(CCCNC(=O)c2cc(Sc3ccc(F)cc3)nc3ccccc23)CC1 -17.3%
CCc1ccc(CN(Cc2cn[nH]c2-c2ccc(OC)cc2)C(=O)Nc2ccc(C)c(F)c2)cc1 -0.09%
Nc1cccc(-c2cn3ccsc3n2)c1 -0.663%
CCOC(=O)c1c(-c2ccccc2)oc2ccc(NS(=O)(=O)c3ccc(C)cc3C)cc12 -0.616%
COc1ccc(Cn2c(=O)c3cccnc3n(Cc3cccc(OC)c3)c2=O)cc1 -8.01%
O=C(NC1CC(=O)N(c2cccc(F)c2)C1)C1CC1 (stereo unspecified) 3.32%
Cc1ccc(NC(=O)c2oc3ccccc3c2NC(=O)c2ccccc2C)cc1 -10.6%
CSc1nnc(NC(=O)Cc2coc3cc(C)ccc23)s1 -0.397%
